In PubChem BioAssay AID1159614 (National Center for Advancing Translational Sciences (NCATS), 2016):
About 65 (0.1%) of roughly 45,000 compounds were called active. The call rests on the fitted dose curve; in most records, active means well fitted activation curve with a large enough effect; inconclusive means small, poorly fitted or top-dose-only effect; inactive means no such curve, though single readings can be large or run the other way. This is one part of the list.

What follows are molecules tested against Galactocerebrosidase (Homo sapiens) (UniProt P54803) (assay: A Novel Cell-Based Assay to Identify Small Molecules for B -Galactocerebrosidase). Settings: 145M-Twi-hGALC-G270D cells (Twitcher mouse brain line with human GALC G270D), HMU-beta-Gal fluorescence, 48 h; series mostly up to 57.5 µM; activation: at the top concentration.
Method in brief: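 Brain-derived Twitcher mouse 145M-Twi cells stably expressing human GALC-G270D or wild-type GALC, treated live, then residual GALC activity read by fluorescence of HMU-b-Gal substrate (0.1 mM final) in citrate-phosphate buffer pH 5.2 with sodium taurocholate. Signal increase indicates enhancement.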
Further: 0% is about no effect; nearly all actives have a fitted effect of over 65% in size.

Chain of UniProt P54803 (P54803 whole entry, looked up): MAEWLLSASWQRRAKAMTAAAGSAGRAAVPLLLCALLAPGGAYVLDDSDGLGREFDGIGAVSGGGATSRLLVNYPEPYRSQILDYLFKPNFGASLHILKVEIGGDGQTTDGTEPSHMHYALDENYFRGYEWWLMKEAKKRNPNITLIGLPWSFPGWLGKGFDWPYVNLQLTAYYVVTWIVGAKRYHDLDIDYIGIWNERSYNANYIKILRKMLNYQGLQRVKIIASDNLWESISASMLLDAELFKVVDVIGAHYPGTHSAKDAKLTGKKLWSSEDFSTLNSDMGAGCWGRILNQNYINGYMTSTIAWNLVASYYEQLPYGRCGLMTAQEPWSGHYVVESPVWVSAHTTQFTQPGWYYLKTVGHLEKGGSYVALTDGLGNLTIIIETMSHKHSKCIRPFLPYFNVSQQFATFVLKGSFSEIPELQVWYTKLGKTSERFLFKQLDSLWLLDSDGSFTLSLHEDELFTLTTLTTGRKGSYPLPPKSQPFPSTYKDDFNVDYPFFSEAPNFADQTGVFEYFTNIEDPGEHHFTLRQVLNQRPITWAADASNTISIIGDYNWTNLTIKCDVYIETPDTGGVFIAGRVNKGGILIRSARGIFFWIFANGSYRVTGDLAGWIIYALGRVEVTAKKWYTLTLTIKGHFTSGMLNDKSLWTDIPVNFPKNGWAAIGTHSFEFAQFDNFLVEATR

Row | Compound | activation
1 | Cc1nn(-c2nc(-c3ccc(F)cc3)cc(C(F)(F)F)n2)c(C)c1Br | inactive: -14.5%
2 | COc1cccc(C(=O)Nc2ccccc2C(=O)OCc2cc(=O)n3c(C)csc3n2)c1 | inactive: -2.43%
3 | COc1ccc(NC(=O)Cn2c(C)cc3ccccc3c2=O)c(OC)c1 | inactive: 0.233%
4 | COC(=O)c1cc(C)nc2c1c(=O)nc(SCc1cccc(C)c1)n2C1CC1 | inactive: -12.6%
5 | CC1=Nc2cc(C(=O)NC3CCCC3)ccc2Sc2ccc(C)cc21 | inactive: -20.9%
6 | CC(=O)c1ccc(NC(=O)CC2Nc3cccc4cccc(c34)NC2=O)cc1 (stereo not drawn) | inactive: -14.6%
7 | CCc1cccc(CC)c1NC(=O)c1ccc2c(c1)CCN2S(=O)(=O)c1ccccc1 | inactive: -11.9%
8 | COc1ccccc1OCC(=O)N(Cc1ccc(Cl)cc1)CC1CCCO1 (stereo not drawn) | inactive: -10.6%
9 | CSc1ccc(CCNC(=O)CCCn2nc(C)c3sc4ccccc4c3c2=O)cc1 | inactive: 7.93%
10 | Cc1cccc(NC(=O)CN2C(=O)c3cccnc3Oc3ccc(Cl)cc32)c1C | inactive: -8.32%
11 | Cc1nn(-c2ccc(F)cc2)c(-n2cccc2)c1C(=O)NCCCN1CCN(c2ccccc2F)CC1 | inactive: 0.742%
12 | CCOC(=O)c1ccccc1NC(=O)Nc1cc2c(cc1N1CCCCC1)n(C)c(=O)n2C | inactive: -8.14%
13 | CCOc1ccc(CNC(=O)CCS(=O)(=O)c2cc3c(cc2Cl)NC(=O)CO3)cc1OC | inactive: -12.8%
14 | CCOc1ccc(Oc2nc(NCC(C)C)nc(NC(C)(C)C)n2)nn1 | inactive: -8.69%
15 | O=C(Nc1ccc(N2CCC(c3ccccc3)C2)c(C(=O)O)c1)c1ccc(Cl)cc1 (stereo not drawn) | inactive: -10.4%
16 | COc1cccc(NC(=O)CCc2c(C)nc3c4cccnc4nn3c2C)c1 | inactive: -17.3%
17 | COCCCNC(=O)CN1C(=O)COc2ccc(S(=O)(=O)N3CCCC3)cc21 | inactive: -8.49%
18 | COc1ccc(C(=O)NCCn2cc(SCC(=O)NCCc3ccc(OC)c(OC)c3)c3ccccc32)cc1 | inactive: -9.77%
19 | COc1cccc(NC(=O)Cn2cnc3c(nc4n3CCCCC4)c2=O)c1 | inactive: -11%
20 | Cc1n[nH]c(C)c1S(=O)(=O)N(CC(=O)NC(C)c1ccccc1)c1ccc(C(C)C)cc1 (stereo not drawn) | inactive: -0.69%
21 | Cc1ccc(NC(=O)Cn2c(=O)c3cc(Cl)ccc3n3nncc23)cc1 | inactive: -12.4%
22 | COCCCNc1ncnc2onc(-c3ccc(F)cc3)c12 | inactive: -9.71%
23 | COC(=O)CS(=O)(=O)c1nc2ccccc2nc1N1CCCCC1 | inactive: -8.54%
24 | CC(C)CCNC(=O)Nc1ccc2c(c1)N(C)C(=O)c1ccccc1S2 | inactive: -15.9%

Row | Compound | activation
25 | Cc1ccc(-c2cc(C(=O)N3CCN(S(=O)(=O)c4ccc(Br)cc4)CC3)[nH]n2)cc1C | inactive: 1.4%
26 | CS(=O)(=O)N1CCc2cc(C(=O)NCCc3ccccc3)ccc21 | inactive: -13%
27 | CC1=C(c2ccc(C)c(C)c2)S(=O)(=O)N=C1N1CCC(C(=O)NCCc2ccco2)CC1 | inactive: -0.938%
28 | COc1ccc(-c2[nH]nc3nc(-c4cc(OC)c(OC)c(OC)c4)cc(C(=O)O)c23)cc1 | inactive: -8.54%
29 | COc1ccc(N2CCN(C(=O)CCc3c(C)nc4cc(-c5ccc(Cl)cc5)nn4c3C)CC2)cc1 | inactive: -21.1%
30 | Cc1nc2ccccc2c(=O)n1-c1ccc(NC(=O)c2ccc([N+](=O)[O-])cc2)cc1 | inactive: -9.54%
31 | CCOc1ccc(NCc2cccn2-c2nnc(N3CCC(C(=O)NCCc4ccc(OC)c(OC)c4)CC3)s2)cc1 | inactive: -32.8%
32 | CCC(=O)NCC(c1ccc2c(c1)OCO2)N1CCN(c2ccccc2)CC1 (stereo not drawn) | inactive: -4.28%
33 | CCCCCC=CCC=CCCCCCCCC(=O)OCC | inactive: -20%
34 | Cc1ccc2[nH]c(CSc3nnc(NC(=O)c4ccccc4C)s3)cc(=O)c2c1 | inactive: -11.7%
35 | Cc1ccccc1CNC(=O)C(=O)NCC(c1ccco1)S(=O)(=O)c1ccccc1 (stereo not drawn) | inactive: -13.8%
36 | COc1ccc(C(=O)Nc2nnc(S(=O)(=O)N(C)c3ccc(Cl)cc3)s2)cc1OC | inactive: -25.2%
37 | CCCS(=O)(=O)N1CCCC(C(=O)NCCCOC)C1 (stereo not drawn) | inactive: -10.2%
38 | Cc1ccc(CCNC(=O)c2cn(C)c3ccc(S(=O)(=O)N4CCCCC4)cc3c2=O)cc1 | inactive: -9.86%
39 | COc1cc(-c2nc3ncccn3c2Nc2ccc(C)cc2C)ccc1O | inactive: -2.03%
40 | O=C(CSc1nc2ccccc2nc1Cc1ccccc1)N1CCCCC1 | inactive: -10.3%
41 | COc1cc(OC)cc(C(=O)Nc2ccc3c(c2)N(C2CCCC2)C(=O)c2ccccc2S3)c1 | inactive: -5.38%
42 | O=C(NCc1ccccc1Cl)c1cc2ccccc2o1 | inactive: -12.8%
43 | CCc1cccc(NC(=O)CCS(=O)(=O)c2cc(Br)cc3c2N(C(C)=O)CC3)c1 | inactive: -8.83%
44 | COc1cccc(Nc2c3c(nc4nncn24)CCC3)c1 | inactive: -6.37%
45 | CCOc1ccccc1NC(=O)Cn1cnc2sc(C)c(S(=O)(=O)N3CCC(C)CC3)c2c1=O | inactive: -17.6%
46 | Cc1cc(C)cc(-n2c(SCC(N)=O)nc3c(oc4ccccc43)c2=O)c1 | inactive: -13.9%
47 | CCCCOc1cccc(C(=O)Nc2ccc3oc(-c4cccnc4)nc3c2)c1 | inactive: -5.93%
48 | CCc1ccc(C2CC(=O)Nc3c2c(C)nn3-c2nc(C)cc(C)n2)cc1 (stereo not drawn) | inactive: -12.3%
